# Results as given in PubChem BioAssay AID488969 (Vanderbilt High Throughput Screening Facility, 2010).
# In all, about 110,000 compounds were measured (“z-score”: median about -0.1, highest 2% from about 2 on). Some of the results follow. Active and inactive are the calls of the source.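 The calls were made as follows: active = z-score in the third read window above 3 or below -3; inactive = the rest.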
# Target: Metabotropic glutamate receptor 8 (Rattus norvegicus) (UniProt P70579)
# Assay: rat mGluR8 modulators via GIRK flux, primary screen, cell-based, thallium flux, HTS (AID 488969)
# Settings: HEK293 rat mGluR8, GIRK (G protein-gated inwardly rectifying potassium channel) thallium flux, FluoZin2; at 10 µM; stronger effect = higher value; submaximal glutamate (EC20) added with thallium
# Sequence of UniProt P70579 (P70579 whole entry, looked up): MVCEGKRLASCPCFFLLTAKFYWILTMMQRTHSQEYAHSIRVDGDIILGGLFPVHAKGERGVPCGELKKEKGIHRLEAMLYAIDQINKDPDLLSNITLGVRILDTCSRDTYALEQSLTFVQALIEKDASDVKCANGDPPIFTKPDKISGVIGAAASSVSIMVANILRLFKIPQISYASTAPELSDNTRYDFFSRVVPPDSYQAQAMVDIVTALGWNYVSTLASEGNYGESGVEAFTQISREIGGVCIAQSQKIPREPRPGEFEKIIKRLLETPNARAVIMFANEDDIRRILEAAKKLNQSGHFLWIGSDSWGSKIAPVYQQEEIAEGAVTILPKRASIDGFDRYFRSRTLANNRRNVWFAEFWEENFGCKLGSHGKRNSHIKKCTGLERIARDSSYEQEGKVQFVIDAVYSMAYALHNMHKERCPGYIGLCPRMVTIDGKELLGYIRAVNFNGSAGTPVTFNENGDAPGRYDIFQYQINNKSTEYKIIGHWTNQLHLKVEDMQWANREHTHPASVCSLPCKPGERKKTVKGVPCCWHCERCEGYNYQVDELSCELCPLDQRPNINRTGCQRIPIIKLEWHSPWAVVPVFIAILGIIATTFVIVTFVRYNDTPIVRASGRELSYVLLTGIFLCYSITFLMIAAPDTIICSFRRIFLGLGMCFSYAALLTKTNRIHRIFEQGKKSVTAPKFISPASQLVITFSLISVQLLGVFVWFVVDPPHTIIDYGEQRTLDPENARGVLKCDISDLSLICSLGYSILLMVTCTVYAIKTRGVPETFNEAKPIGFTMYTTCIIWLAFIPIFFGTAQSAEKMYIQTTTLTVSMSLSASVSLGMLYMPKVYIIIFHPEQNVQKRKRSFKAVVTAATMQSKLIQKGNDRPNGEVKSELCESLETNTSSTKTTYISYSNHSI
row,SMILES,z-score
1,Cc1ccccc1NC(=O)C1CCCN1/C=C/C(=O)C(F)(F)F (stereo unspecified),-0.244
2,CC(C)(Oc1ccc(Cl)cc1)C(=O)Nc1ccncc1,-0.401
3,Cc1cc(Br)c(OCc2ccc(C(=O)N/N=C3\CC(=O)CC(C)(C)C3)cc2)c(Br)c1,-0.0552
4,Cc1ccc(-n2ncc3c(=O)[nH]c(SCC(=O)N4CCCCC4)nc32)cc1,-0.107
5,Cc1ccc(CN2CCN(CC(=O)NCCCN3CCN(c4ccc(F)cc4)CC3)C2=O)cc1,0.0736
6,CC(=O)NC(C)C12CC3CC(CC(CC(=O)O)(C3)C1)C2 (stereo unspecified),-1
7,Cc1cc(C)nc(NC(=O)COc2cc(Cl)cc(Cl)c2)n1,-0.251
8,Cc1cc(C)c(NC(=S)N2CCCC2C(=O)O)c(C)c1 (stereo unspecified),-0.128
9,O=C(CSc1ccc(-c2ccc(Cl)cc2)nn1)Nc1ccc2c(c1)OCCO2,-0.107
10,COc1ccc(N(C(=O)CCl)C(C(=O)NCCc2ccccc2)c2cccs2)cc1 (stereo unspecified),-0.183
11,Cc1c(NC(=O)c2cc(=O)[nH]c3ccccc23)c(=O)n(-c2ccccc2)n1C,0.806
12,Cc1ccc2nc(C)cc(NCCO)c2c1,-1.17
13,N=C1C(c2nc3ccccc3[nH]2)=C(O)CN1c1ccc(CC(=O)O)cc1,0.524
14,COCCCN1C(=O)C(=O)/C(=C(/O)c2ccc3c(c2)CC(C)O3)C1c1cccnc1 (stereo unspecified),-0.0792
15,O=C(COc1ccc([N+](=O)[O-])cc1)NN=C1CCCC1,0.0848
16,N=c1c2c3c(sc2ncn1CCN1CCOCC1)CCCC3,-1.13
17,O=C(O)C1CCCN1C(=O)Oc1ccccc1 (stereo unspecified),-0.186
18,Cc1ccc(S(=O)(=O)CCC(=O)OCC(=O)c2ccc(C)c(C)c2)cc1,-0.412
19,CS(=O)(=O)N(CCc1ccccc1)CC(=O)N1CCCCC1,0.555
20,Cc1ccc(Nc2nc(CSc3nnc(-c4ccccc4)n3C)cs2)cc1,-0.569
21,COC(=O)c1[nH]c2ccc(Cl)cc2c1NC(=O)C1CC1,0.098
22,COc1cccc(OC)c1C(=O)Nc1ccc(CN2CCCCC2)cc1,-0.866

row,SMILES,z-score
1,NC(=O)C1CCN(C(=O)COc2ccc3ccccc3c2)CC1,0.115
2,[N-]=[N+]=CC(=O)CCCN1C(=O)c2ccccc2C1=O,-0.111
3,CC(C)(C)C1CCC(OCC(O)CN2CCN(Cc3ccccc3)CC2)CC1 (stereo unspecified),-0.106
4,CCc1ccc2c(c1)c(N=NC1=NC(=O)CS1)c(O)n2C,2.09
5,CCCOc1ccc(OC(=O)c2ccc(Br)o2)cc1,-0.103
6,CC(C)(C)c1ccc(C(=O)NNC(=O)c2ccccc2Br)cc1,-0.181
7,CCOC(=O)c1cnc2ccc(Cl)cc2c1N1CCN(C)CC1,-0.0256
8,CCOC(=O)C1=C(c2ccccc2)Nc2nc(C)nn2C1c1cccc(OC)c1OC (stereo unspecified),0.00423
9,CCOC(=O)CSc1nnc(CNC(=O)Cc2ccccc2)n1C,-0.274
10,Nc1nc2n(n1)C(c1cccc(Cl)c1)CC(c1ccc(F)cc1)N2 (stereo unspecified),0.421
11,Cc1ncc([N+](=O)[O-])n1CCOC(=O)c1cc(Cl)cc(Cl)c1N,-0.21
12,O=C(NCCc1ccccc1)C1CCN(S(=O)(=O)c2cccnc2)CC1,1.19
13,CCC1(C)Cc2nc3[nH]c(=S)n(-c4ccc(C)cc4)c(=O)c3cc2CO1 (stereo unspecified),-0.162
14,CC(C)c1ccc(NC(=O)C2CC(=O)N=C(N)S2)cc1 (stereo unspecified),0.25
15,Cc1ccc(-c2csc(N(C)C(=O)c3c(C)nn(-c4ccccc4)c3Cl)n2)cc1,-0.178
16,O=C(c1cn(-c2ccccc2)nc1-c1cccs1)N1CCN(c2ccccn2)CC1,-0.264
17,O=C(Nc1nc(-c2ccc(S(=O)(=O)N3CCCCCC3)cc2)cs1)c1ccccc1,-0.101
18,COC(=O)c1sccc1NC(=O)c1ccc(Cl)s1,-0.15
19,O=C(NC(=S)Nc1cccc(Cl)c1N1CCCCC1)c1ccco1,active: 5.38
20,Cc1nc2ccccc2n1CCc1nc2c3ccccc3nc(=S)n2[nH]1,-0.257
21,CCCCn1c(SCC(=O)N2CCOCC2)nnc1-c1ccoc1C,1.9
22,CCCCN(C(=O)c1cc2ccccc2o1)c1c(N)n(CCC)c(=O)[nH]c1=O,0.0353

row,SMILES,z-score
1,Cc1ccc(N2CC(C(=O)N3CCCc4ccccc43)CC2=O)cc1 (stereo unspecified),-0.407
2,C/C(=C/C(=O)N1CCN(C)CC1)C(=O)O,-0.0728
3,COC(=O)C1=C(O)/C(=C\c2ccc(CNC(=O)C(=O)Nc3ccc(C)c(C)c3)o2)N=C1C,-0.472
4,O=C(NNC(=O)c1cccc(S(=O)(=O)N2CCN(c3ccccc3)CC2)c1)c1ccc(Cl)cc1,-0.108
5,CCc1ccc(NC(=O)CSc2nnc(-c3cnccn3)n2Cc2ccco2)cc1,-0.0331
6,O=C(CSc1nnc(-c2ccncc2)n1CC1CCCO1)Nc1nccs1 (stereo unspecified),-0.0829
7,O=S(=O)(Cc1ccccc1)N1CCCC(c2nc(-c3ccc(F)cc3)no2)C1 (stereo unspecified),-0.449
8,COc1cc(OC)c(CN2CCCCCCC2)cc1Br,0.914
9,CC1(C)CC(=O)C=C(NCCN2CCN(C(=O)Nc3ccccc3)CC2)C1,-0.235
10,COc1cccc(/C=C/C(=C2/C(=O)N(c3ccccc3)N=C2C)c2ccc(C)cc2)c1OC,-0.536
11,COC(=O)C(NC(=O)c1ccccc1)(Nc1nccs1)C(F)(F)F (stereo unspecified),0.0938
12,COc1ccc(CN(CC(=O)NCC2CCCO2)C(=O)CNS(=O)(=O)c2ccc(C)cc2)cc1 (stereo unspecified),0.18
13,FC(F)(F)c1ccc(N2CCOCC2)c(NC2=NCCCCC2)c1,1.01
14,Cc1cccc(OCC(=O)Nc2ccc3c(c2)nc(CCN2CCN(C)CC2)n3C)c1,0.472
15,Cc1nc(S/C(=C/c2ccc(-c3cccc(Cl)c3)o2)C(=O)O)n[nH]1,-0.00935
16,CN1CCN(C(=O)c2ccc3c(c2)N(Cc2cccc(Cl)c2)C(=O)c2ccccc2S3=O)CC1 (stereo unspecified),-0.604
17,O=c1nc(/C=C/c2ccc(-c3ccc(F)cc3)o2)cc(C(F)(F)F)[nH]1,0.167
18,C/C(=N\c1nc2ccccc2n1C)c1cc(Cl)ccc1O,-0.63
19,COc1ccccc1N1CCN(C(=O)CN(Cc2ccccc2)S(C)(=O)=O)CC1,0.36
20,COc1ccc(NC(=O)c2[nH]c(C)c(C(C)=O)c2C)cc1Cl,-0.773
21,O=C(Nc1cccc2c1CCCC2)C1CCN(c2nnnn2-c2ccccc2)CC1,-0.98
22,C(=N\n1cnnc1)/c1ccc2ncccc2c1,-0.0827

row,SMILES,z-score
1,CCOC(=O)C(/C=C(\C#N)C(=O)OCC)=C(/N)N1CCN(c2c(C)cccc2C)CC1,-0.0493
2,O=C1CS/C(=N/N=C2C3CC4CC(C3)CC2C4)N1,-0.0871
3,O=C(COC(=O)C1CCN(S(=O)(=O)c2ccc3c(c2)OCCO3)CC1)Nc1cc(C(F)(F)F)ccc1Cl,-0.303
4,C=CCn1c(COc2ccccc2)nnc1SCC(=O)N/N=C/c1cc(Cl)ccc1O,-0.136
5,Cc1ccc(-n2nnnc2CSc2nnc(-c3ccc(O)cc3)o2)cc1,-0.0955
6,O=S1(=O)N=C(N2CCN(c3ccc(F)cc3)CC2)c2ccccc21,-0.175
7,Cn1cc(S(=O)(=O)N2CCN(c3cccc(C(F)(F)F)c3)CC2)c(=O)n(C)c1=O,-0.133
8,CCCn1nnc(NC(=O)c2cccc(Cl)c2)n1,0.243
9,CCCN(CCC)C(=O)CSc1nc2n[nH]c(C)c2c(=N)n1-c1ccc(OCC)cc1,0.31
10,O=C(/C=C/c1ccccc1)NC(NC(=S)Nc1cc(Cl)ccc1Cl)C(Cl)(Cl)Cl (stereo unspecified),active: 5.83
11,COc1cccc(OC)c1C(=O)Nn1c(C2CCC2)nc2ccccc2c1=O,-0.526
12,c1ccc2c(C3=NNC(=NC4CC4)SC3)c[nH]c2c1,-0.159
13,O=C(C1CCCN1S(=O)(=O)c1ccc(Cl)c(Cl)c1)N1CCCCC1 (stereo unspecified),0.00619
14,O=c1oc(-c2cccc(Cl)c2)nc2c1cnn2-c1ccccc1,-0.298
15,COc1ccccc1N1CCN(CC(=O)Nc2cc(F)ccc2C)CC1,0.0403
16,CCOC(=O)c1[nH]c(C)c(/C(O)=C2\C(=O)C(=O)N(CCCN3CCOCC3)C2c2cccnc2)c1C (stereo unspecified),-0.228
17,CCOC(=O)c1nc2sc3c(c2c(=O)[nH]1)CCCC3,-0.155
18,CS(=O)(=O)c1nncn1-c1ccccc1,0.00777
19,COc1ccc(NC(=O)[C@@H]2[C@@H]3C(=O)N(C4CCCCC4)C(=O)[C@@H]3C3c4ccccc4C=CN32)cc1 (stereo partly specified),-0.26
20,Cc1cc(C)n(-c2nnc(C)n2N)n1,-0.422
21,Cc1cc2c(nn1)CCc1nonc1-2,0.0142
22,CSCCC(NC(=O)c1ccc(Cl)cc1)C(=O)OCC(=O)Nc1ccc(C#N)cc1 (stereo unspecified),-1.13

row,SMILES,z-score
1,COc1ccc(N2CCN(C(=S)Nc3cccc(C)c3)CC2)cc1,0.0394
2,Clc1ccc(-c2nc3ncccn3c2Nc2ccc3c(c2)OCCO3)cc1,-0.233
3,Cc1ccc(Cl)cc1N1CCN(C(=O)c2ccc3nc[nH]c3c2)CC1,-0.487
4,O=C1CCC(/C=C/c2ccccc2)=NN1Cc1ccccc1Cl,-0.293
5,c1ccc(Cn2c(-c3ccccc3)nc3nc4ccccc4nc32)cc1,-0.33
6,Nc1c(-c2ccccc2)cnn1-c1ccc(C(=O)O)cc1,active: -3.94
7,COc1ccc2nc(SCC(=O)Nc3ccc(S(=O)(=O)Nc4onc(C)c4C)cc3)[nH]c2c1,0.0692
8,Cc1cccc(NC(=O)Cn2nnc(-c3ccc(CN4CCCC4)cc3)n2)c1C,0.187
9,COc1ccc([N+](=O)[O-])cc1NC(=O)C(C)Sc1nc(-c2ccccc2)cs1 (stereo unspecified),-0.507
10,COC(=O)c1sc(=S)n(-c2ccccc2OC)c1N,-0.029
11,O=C(/C=C/c1ccco1)NCCCN1CCN(CCCNC(=O)/C=C/c2ccco2)CC1,-0.329
12,CCN1C(=O)c2ccccc2S(=O)(=O)c2ccc(C(=O)N3CCOCC3)cc21,-0.766
13,Nc1nc(CN2CCCCCC2)nc(Nc2ccccc2)n1,0.00781
14,CCCn1nnc(NC(=O)COc2ccc(Cl)cc2)n1,-0.244
15,O=C(N/N=C/c1ccc(-c2ccccc2[N+](=O)[O-])o1)[C@H]1C[C@@H]1c1ccccc1,-0.229
16,CCC(Sc1ccc2nnc(-c3ccc(F)cc3)n2n1)C(=O)OC (stereo unspecified),active: -4.86
17,Cn1c(=NC(=O)CSCC(=O)N2CCOCC2)sc2ccccc21,0.141
18,C=CCn1c2ccccc2c2nnc(SCCCn3c(=O)[nH]c4ccccc43)nc21,-0.699
